Laboratory results reported in patent US20070212426A1, “Composition and method of retarding viral activity and reducing viral replication” (priority 2006, published 2007).

Test system: Influenza Virus A's Neuraminidase
Assay: Neuraminidase activity of cell-free virus, 4-methylumbelliferyl N-acetylneuramic acid substrate
Conditions: various concentrations

`O=C1O[C@H]([C@@H](O)CO)C(O)=C1O` [ascorbic acid] was tested, and the “effect on Influenza Virus A's Neuraminidase Activity (figure legend)” value was “non-retardation effect”.
